Data reported in the supplement of paper PMC10037445.
The full ranking holds about 2,900 compounds; the median of “NF-kB SEAP reporter activity, fold change vs agonist alone” is about 0.99, and the highest 2% start at about 2.6. This is one part of the list.

Tests used:
RAW-Dual [1] = test: NF-kB SEAP reporter activity, fold change vs agonist alone; higher = enhanced NF-kB activity; conditions: library stock concentration (final ~1000-fold dilution): 10 mM
In short: (§1)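 After 50 nL of library stock was delivered by pin tool to RAW-Dual macrophages (50,000 cells/well, DMEM, 384-well plates), a PRR agonist was added 1 h later and the plates were kept at 37 °C, 5% CO2. Twenty hours later, IRF was read from supernatant by QuantiLuc luminescence and NF-κB by QuantiBlue absorbance at 620 nm. Reporter activity is stated as fold change over agonist-alone wells. Wells with IncuCyte confluency under 70% of agonist controls in both mask sets were counted as cytotoxic.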

RAW-Dual [2] = test: NF-kB SEAP reporter activity, fold change vs agonist alone; cytotoxicity flag (confluency mask): not cytotoxic; higher = enhanced NF-kB activity
In short: as §1

RAW-Dual [3] = test: NF-kB SEAP reporter activity, fold change vs agonist alone; cytotoxicity flag (confluency mask): cytotoxic (confluency <70% of control); higher = enhanced NF-kB activity
In short: as §1

[4] = cytotoxicity flag (confluency mask): not cytotoxic, agonist: Imiquimod (TLR7) […]
[5] = cytotoxicity flag (confluency mask): not cytotoxic, agonist: MPLA (TLR4) […]
[6] = agonist: ODN 1826 (TLR9) 0.5 ug/mL
[7] = agonist: Pam2CSK4 (TLR2/6) 0.1 ug/mL
[8] = agonist: Pam3CSK4 (TLR2/1) 0.1 ug/mL

CC=CCC(C)C(O)C1C(=O)NC(CC)C(=O)N(C)CC(=O)N(C)C(CC(C)C)C(=O)NC(C(C)C)C(=O)N(C)C(CC(C)C)C(=O)NC(C)C(=O)NC(C)C(=O)N(C)C(CC(C)C)C(=O)N(C)C(CC(C)C)C(=O)N(C)C(C(C)C)C(=O)N1C (configuration not stated)
NF-kB SEAP reporter activity (RAW-Dual [1]; [4]): 1.83
NF-kB SEAP reporter activity (RAW-Dual [1]; [5]): 1.62

COc1ccc(C(NC(=O)c2cnc(-c3cccnn3)nc2O)c2ccc(OC)cc2)cc1
NF-kB SEAP reporter activity (RAW-Dual [1]; [4]): 0.974
NF-kB SEAP reporter activity (RAW-Dual [1]; [5]): 1.03

COc1ccc(C(NC(=O)c2cnc(-c3cccnn3)nc2O)c2ccc(OC)cc2)cc1 (library stock concentration (final ~1000-fold dilution): 10 mM)
NF-kB SEAP reporter activity (RAW-Dual [2]; agonist: LPS (TLR4) 0.1 ug/mL): 2.9
NF-kB SEAP reporter activity (RAW-Dual [2]; [6]): 0.861
NF-kB SEAP reporter activity (RAW-Dual [2]; [7]): 0.898
NF-kB SEAP reporter activity (RAW-Dual [2]; [8]): 1.02

CCOc1cc(C(CS(C)(=O)=O)N2C(=O)c3cccc(NC(C)=O)c3C2=O)ccc1OC (configuration not stated)
NF-kB SEAP reporter activity (RAW-Dual [1]; [4]): 1.12
NF-kB SEAP reporter activity (RAW-Dual [1]; [5]): 1.26

CCOc1cc(C(CS(C)(=O)=O)N2C(=O)c3cccc(NC(C)=O)c3C2=O)ccc1OC (configuration not stated) (library stock concentration (final ~1000-fold dilution): 10 mM)
NF-kB SEAP reporter activity (RAW-Dual [2]; agonist: LPS (TLR4) 0.1 ug/mL): 1.59
NF-kB SEAP reporter activity (RAW-Dual [2]; [6]): 1.87
NF-kB SEAP reporter activity (RAW-Dual [2]; [7]): 1.47
NF-kB SEAP reporter activity (RAW-Dual [2]; [8]): 1.72

N#CN=C(NCCCCCCOc1ccc(Cl)cc1)Nc1ccncc1
NF-kB SEAP reporter activity (RAW-Dual [1]; [4]): 0.814
NF-kB SEAP reporter activity (RAW-Dual [1]; [5]): 0.91

N#CN=C(NCCCCCCOc1ccc(Cl)cc1)Nc1ccncc1 (library stock concentration (final ~1000-fold dilution): 10 mM)
NF-kB SEAP reporter activity (RAW-Dual [2]; agonist: LPS (TLR4) 0.1 ug/mL): 0.63
NF-kB SEAP reporter activity (RAW-Dual [2]; [6]): 0.709
NF-kB SEAP reporter activity (RAW-Dual [2]; [7]): 0.404
NF-kB SEAP reporter activity (RAW-Dual [2]; [8]): 0.467

O=C(O)/C(S)=C/c1c[nH]c2ccc(F)cc12
NF-kB SEAP reporter activity (RAW-Dual [1]; [4]): 0.865
NF-kB SEAP reporter activity (RAW-Dual [1]; [5]): 1.08

O=C(O)/C(S)=C/c1c[nH]c2ccc(F)cc12 (library stock concentration (final ~1000-fold dilution): 10 mM)
NF-kB SEAP reporter activity (RAW-Dual [2]; agonist: LPS (TLR4) 0.1 ug/mL): 0.886
NF-kB SEAP reporter activity (RAW-Dual [2]; [6]): 0.864
NF-kB SEAP reporter activity (RAW-Dual [2]; [7]): 0.988
NF-kB SEAP reporter activity (RAW-Dual [2]; [8]): 0.934

CCNC(=O)c1noc(-c2cc(Cl)c(O)cc2O)c1-c1ccc(OC)cc1 (library stock concentration (final ~1000-fold dilution): 10 mM)
NF-kB SEAP reporter activity (RAW-Dual [2]; agonist: LPS (TLR4) 0.1 ug/mL): 0.229
NF-kB SEAP reporter activity (RAW-Dual [2]; [6]): 0.227
NF-kB SEAP reporter activity (RAW-Dual [2]; [7]): 0.0828
NF-kB SEAP reporter activity (RAW-Dual [2]; [8]): 0.145

CCNC(=O)c1noc(-c2cc(Cl)c(O)cc2O)c1-c1ccc(OC)cc1
NF-kB SEAP reporter activity (RAW-Dual [1]; [4]): 0.165
NF-kB SEAP reporter activity (RAW-Dual [1]; [5]): 0.374

Cl.Cl.Cl.Cl.Nc1cc(N)c(N)cc1N (library stock concentration (final ~1000-fold dilution): 10 mM)
NF-kB SEAP reporter activity (RAW-Dual [3]; agonist: LPS (TLR4) 0.1 ug/mL): 0.239
NF-kB SEAP reporter activity (RAW-Dual [3]; [6]): 0.175
NF-kB SEAP reporter activity (RAW-Dual [3]; [7]): 0.0867
NF-kB SEAP reporter activity (RAW-Dual [3]; [8]): 0.109

Cl.Cl.Cl.Cl.Nc1cc(N)c(N)cc1N
NF-kB SEAP reporter activity (RAW-Dual [1]; cytotoxicity flag (confluency mask): cytotoxic (confluency <70% of control), agonist: MPLA (TLR4) […]): 0.202
